From PubChem BioAssay AID662 (National Center for Advancing Translational Sciences (NCATS), 2007)
Out of some 71,000 compounds screened, about 1,800 (2.5%) were called active. Inconclusive results, whose numbers are uncertain, are shown with a selection of clear calls. The call rests on the fitted dose curve; in most records, active means well fitted activation curve with a large enough effect in the signal ratio, with a control signal flat (not every such curve was filed as active); inconclusive means small, poorly fitted or top-dose-only effect, or effect the other way, or a change in a side signal; inactive means flat fitted curve, though single readings scatter; the % refers to the signal ratio. A potency beside an inconclusive call is a rough fit, not a confirmed value.

Assay: Cell signaling CRE-BLA (Fsk stim); on activity change, negative = inhibition: % of control where 0% means no effect
Conditions: CHO CRE-bla reporter (cAMP response element driving beta-lactamase), forskolin EC10, beta-lactamase ratio; activity change, negative = inhibition: at 38.2 µM (top of the series) unless noted
In short: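 CRE-bla CHO cells stimulated with EC10 NKH 477 (water-soluble forskolin) and compound titrations, 3 h at 37C; beta-lactamase read with CCF4 after 2 h at room temperature. Activity from 460/530 nm emission ratio, AC50 values for positive or negative modulation.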
Potency means the concentration at half of the fitted maximal effect; tags describe the fitted curve by direction and shape.

**Q.** Which activity change, negative = inhibition does the source give for `NC(=O)SCC(=O)Nc1ccc2ncccc2c1` here?
**A.** Its activity change, negative = inhibition is inconclusive: 4.27% [at 7.6 µM].

**Q.** Which activity change, negative = inhibition does the source give for `CC1(C)CC(=O)C2=C(C1)OC(/N=C/N1CCOCC1)=C(C#N)C2c1ccccc1` (stereo not drawn) here?
**A.** The activity change, negative = inhibition was inconclusive: 16.3%.

**Q.** Which “activity change, negative = inhibition” value does the source give for `NCCC[C@@H](CC(=O)N[C@@H]1CCCC[C@H]1C(=O)N[C@H](CC(=O)N[C@@H](CCC(=O)O)CC(=O)O)Cc1ccccc1)NC(=O)C[C@H](Cc1ccccc1)NC(=O)[C@@H]1CNCC[C@H]1N` here?
**A.** The value was inactive: -17.4%.

**Q.** For `COc1ccc(-c2nc3cnc(N4CCOCC4)nc3n(C)c2=O)cc1`, which activity change, negative = inhibition is on record?
**A.** Its activity change, negative = inhibition is inconclusive: 21.7%.

**Q.** For `COC(=O)c1ccc(C(=O)OC)c(NC(=O)c2ocnc2C)c1`, which “activity change, negative = inhibition” value is on record?
**A.** Its value is inactive: 18.9%.

**Q.** For `Cc1ccc(C)o1`, which “activity change, negative = inhibition” value is on record?
**A.** The value was inactive: -13.7%.

**Q.** Which “activity change, negative = inhibition” value does the source give for `O=C(CCN1CCOCC1)Nc1ccc2c(c1)N(C(=O)CN1CCOCC1)c1ccccc1CC2` here?
**A.** Its value is inactive: 1.87%.

**Q.** For `O=C(O)[C@H]1CCCC[C@@H]1c1c2ccc(=O)c(O)c-2oc2c(O)c(O)ccc12`, which activity change, negative = inhibition is on record?
**A.** Its activity change, negative = inhibition is inactive: -11.4% [at 7.6 µM].

**Q.** Which activity change, negative = inhibition does the source give for `COc1ccc(-c2cn3c(C)c(C(=O)Nc4cc(NC(C)=O)ccc4OC)sc3n2)cc1` here?
**A.** The activity change, negative = inhibition was inconclusive: 10.4%.

**Q.** With `CCOc1ccc2nc(N3CCC(C(=O)N4CCN(c5ncccn5)CC4)CC3)sc2c1` as the compound, how does the “activity change, negative = inhibition” value read?
**A.** Its value is inactive: 2.29%.

**Q.** For `CCOC(=O)N1CCN(C(=O)C2CC(c3cc(OC)ccc3OC)=NO2)CC1` (stereo not drawn), which activity change, negative = inhibition is on record?
**A.** The activity change, negative = inhibition was inconclusive: 6.81%.

**Q.** With `O=C(CSC1=NCCS1)NCc1ccco1` as the compound, how does the Potency read?
**A.** The Potency was inconclusive: 5.01 µM [rising, single point].

**Q.** With `Cc1ccc2nc3c(cc(C#N)c(=O)n3CC3CCCO3)c(=O)n2c1` (stereo not drawn) as the compound, how does the Potency read?
**A.** Its Potency is active: 1.26 µM.

**Q.** Which activity change, negative = inhibition does the source give for `Cc1ccccc1-c1noc(-c2ccc(O)cc2)n1` here?
**A.** Its activity change, negative = inhibition is inconclusive: 4.15% [at 7.6 µM].

**Q.** For `CCc1c(O)nc(SCC(=O)N2CCCCC2)n(-c2ccccc2C)c1=O`, which “activity change, negative = inhibition” value is on record?
**A.** The value was inactive: 3.32%.

**Q.** With `CC1(C)CC(NC(=O)CC2CCCCC2)CC(C)(C)N1` as the compound, how does the activity change, negative = inhibition read?
**A.** The activity change, negative = inhibition was inconclusive: -9.03%.

**Q.** With `FC(F)(F)c1ccccc1-c1nccc(NCc2cccs2)n1` as the compound, how does the “activity change, negative = inhibition” value read?
**A.** The value was inactive: -11.9%.

**Q.** For `CC(C)Cn1c(=O)c(C2=NS(=O)(=O)c3ccccc3N2)c(O)c2ccccc21`, which “activity change, negative = inhibition” value is on record?
**A.** Its value is inactive: 13.8%.

**Q.** Which activity change, negative = inhibition does the source give for `O=S(=O)(c1ccccc1)N1CCN(Cc2cccc(Cl)c2)CC1` here?
**A.** The activity change, negative = inhibition was inconclusive: -1.14%.

**Q.** For `O=C(Nc1nc2ccc(S(=O)(=O)N3CCCC3)cc2s1)C1CCCCC1`, which Potency is on record?
**A.** Its Potency is inconclusive: 12.6 µM [rising, single point].

**Q.** Which “activity change, negative = inhibition” value does the source give for `COC(=O)Cc1c(C)c2c(OCc3nn[nH]n3)cc(C)cc2oc1=O` here?
**A.** Its value is inactive: -0.386%.

**Q.** Which “activity change, negative = inhibition” value does the source give for `COC(=O)CSc1nc2c(c(-c3ccco3)c1C#N)CCCC2` here?
**A.** Its value is inactive: -4.33%.

**Q.** Which “activity change, negative = inhibition” value does the source give for `CCOc1cccc(C(=O)N(Cc2ccc(F)cc2)C2CCS(=O)(=O)C2)c1` (stereo not drawn) here?
**A.** Its value is inactive: -3.88%.

**Q.** With `CCCC(Cl)CCCC(Cl)CCC(Cl)CCC(Cl)CCC(Cl)CCCC(Cl)CCC` (stereo not drawn) as the compound, how does the “activity change, negative = inhibition” value read?
**A.** Its value is inactive: -10.8%.

**Q.** Which activity change, negative = inhibition does the source give for `O=S(=O)(O)c1ccc(-c2nnc(-c3ccccn3)nc2-c2ccc(S(=O)(=O)O)o2)o1` here?
**A.** Its activity change, negative = inhibition is inactive: -8.68% [at 7.6 µM].

**Q.** Which Potency does the source give for `NC(=O)COc1ccc2c3c(c(=O)oc2c1)CCCCC3` here?
**A.** The Potency was inconclusive: 25.1 µM [rising, single point].

**Q.** For `CCc1nc2oc3cc(OC)ccc3c(=O)c2c(=O)n1Cc1ccco1`, which Potency is on record?
**A.** Its Potency is inconclusive: 5.01 µM [rising, partial curve].

**Q.** With `COc1ccc(OC)c(S(=O)(=O)n2cnc3cc(C)c(C)cc32)c1` as the compound, how does the activity change, negative = inhibition read?
**A.** The activity change, negative = inhibition was inconclusive: 28.2%.

**Q.** For `COc1cc(C2C(C#N)=C(N)Oc3cc(C)n(CC4CCCO4)c(=O)c32)cc2c1OCO2` (stereo not drawn), which Potency is on record?
**A.** The Potency was inconclusive: 12.6 µM [rising, single point].

**Q.** For `CCCCN(CC)CCCNC(=O)c1cc2cc3ccc(OC)cc3nc2o1`, which activity change, negative = inhibition is on record?
**A.** Its activity change, negative = inhibition is inconclusive: 10.2%.

**Q.** With `O=C(NCCO[N+](=O)[O-])c1cccnc1` as the compound, how does the “activity change, negative = inhibition” value read?
**A.** The value was inactive: -13.6%.

**Q.** With `COc1cc(NC(=O)CC(C)C)ccc1NC(=O)c1ccco1` as the compound, how does the Potency read?
**A.** The Potency was inconclusive: 0.0398 µM [rising, single point].

**Q.** With `CC(C)[C@@H](CC(=O)N[C@@H]1CCCC[C@H]1C(=O)N[C@H](CC(=O)N[C@@H](CCC(=O)O)CC(=O)O)Cc1ccccc1)NC(=O)C[C@H](Cc1c[nH]c2ccccc12)NC(=O)[C@@H]1CCCC[C@H]1N` as the compound, how does the “activity change, negative = inhibition” value read?
**A.** Its value is inactive: -16.6%.

**Q.** Which Potency does the source give for `CCCc1nc2ccccc2n2cc3c(=O)n(C)c(=O)n(C)c3c12` here?
**A.** The Potency was active: 5.01 µM.

**Q.** With `CCn1c(=N)n(CC(=O)OC)c2ccccc21` as the compound, how does the activity change, negative = inhibition read?
**A.** The activity change, negative = inhibition was inconclusive: 14.5%.

**Q.** Which Potency does the source give for `COC(=O)Nc1nc2ccc(SC(C)C)cc2[nH]1` here?
**A.** The Potency was inconclusive: 3.98 µM [rising, partial curve].

**Q.** With `CN(C)Cc1nc2ccccc2c(=O)n1Cc1nc(C(C)(C)C)cs1` as the compound, how does the activity change, negative = inhibition read?
**A.** The activity change, negative = inhibition was inconclusive: -16.2%.

**Q.** For `CC(C)(C)n1nnnc1C(c1ccccc1F)N(Cc1ccco1)CC1CCCO1` (stereo not drawn), which “activity change, negative = inhibition” value is on record?
**A.** Its value is inactive: -2.43%.

**Q.** With `CC(C)C(=O)Nc1cccc2nsnc12` as the compound, how does the activity change, negative = inhibition read?
**A.** The activity change, negative = inhibition was inconclusive: -19.6%.

**Q.** With `COc1ccc(S(=O)(=O)NCCN2CCOCC2)c2ccccc12` as the compound, how does the Potency read?
**A.** The Potency was inconclusive: 0.0501 µM [rising, full curve, poor fit].

**Q.** With `O=C1c2ccccc2NC(c2ccc(F)cc2)N1Cc1ccco1` (stereo not drawn) as the compound, how does the activity change, negative = inhibition read?
**A.** The activity change, negative = inhibition was inconclusive: 1.57%.

**Q.** With `COC(=O)c1[nH]c2ccc(C)cc2c1NC(=O)CN1CCN(Cc2ccccc2)CC1` as the compound, how does the “activity change, negative = inhibition” value read?
**A.** Its value is inactive: 20.7%.

**Q.** With `Cn1c(=O)cc(OCCCC(=O)N2CCN(c3ccccc3)CC2)c2ccccc21` as the compound, how does the Potency read?
**A.** The Potency was inconclusive: 7.94 µM [rising, partial curve].

**Q.** Which results are given for `COC(=O)C1=C(C)NC(C)=C(C(=O)OCCCN2CCC(c3ccccc3)(c3ccccc3)CC2)[C@H]1c1cccc([N+](=O)[O-])c1`?
**A.** Potency: inconclusive: 1.58 µM [falling, full curve]; activity change, negative = inhibition: inconclusive: -25.4%

**Q.** With `CN(Cc1ccccc1)C(=O)CN(C1CCCCC1)S(C)(=O)=O` as the compound, how does the Potency read?
**A.** The Potency was active: 3.98 µM.

**Q.** For `O=c1[nH]c(N2CCN(c3ccccc3)CC2)nc2c1CCC2`, which “activity change, negative = inhibition” value is on record?
**A.** The value was inactive: 0.0849%.

**Q.** With `CC(=O)Nc1ccc2nc(-c3cccs3)[nH]c2c1` as the compound, how does the Potency read?
**A.** The Potency was inconclusive: 0.02 µM [rising, full curve].

**Q.** For `COCCn1c(=O)c(-c2cccs2)nc2cnc(N3CCOCC3)nc21`, which Potency is on record?
**A.** The Potency was active: 2 µM.

**Q.** For `COCCNC(=O)C(c1ccccc1C)N(CCOC)C(=O)Cn1nnc2ccccc21` (stereo not drawn), which “activity change, negative = inhibition” value is on record?
**A.** Its value is inactive: -0.733%.

**Q.** For `COC(=O)Nc1sc2c(c1C(=O)N1CCOCC1)CCC(C)C2` (stereo not drawn), which “activity change, negative = inhibition” value is on record?
**A.** Its value is inactive: 3.18%.

**Q.** For `CC(C)Sc1nc2c(c(=O)[nH]c(=O)n2C)n1CCc1ccccc1`, which activity change, negative = inhibition is on record?
**A.** The activity change, negative = inhibition was inconclusive: 20.7%.

**Q.** For `COc1ccc(-c2cc(C(=O)NCc3cccnc3)no2)cc1OC`, which Potency is on record?
**A.** The Potency was inconclusive: 12.6 µM [rising, single point].
